Laboratory results from ChEMBL document CHEMBL4311995, “Discovery and development of extreme selective inhibitors of the ITD and D835Y mutant FLT3 kinases” (Eur J Med Chem, 2019).
Values after ≈ are worked out from the molar mass of the structure shown.

Experiments:
[1] = in vitro; details: PAMPA, pH 7.4
[2] = in vivo; details: NMRI, mouse, po, 10 mg/kg
[3] = in vivo; details: NMRI, mouse, po, 10 mg/kg; remark: listed apart in the source
[4] = physchem; details: buffer, pH 7.4
[5] = test system: MV4-11; assay: cells; assay type: functional, cell-based; details: Homo sapiens, MV4-11, 72 h
[6] = cells; assay type: ADME, cell-based; details: Homo sapiens, HS5, 72 h
[7] = test system: K562; assay: cells; assay type: functional, cell-based; details: Homo sapiens, K562, 72 h
[8] = physchem; details: buffer, pH 2
[9] = test system: U-937; assay: cells; assay type: functional, cell-based; details: Homo sapiens, U-937, 72 h

## CN(C)CCCNc1nc(/C=C/c2ccc(F)cc2)nc2ccc(Cl)cc12
[1]
  Papp at 5 h: 6.29 ×10⁻⁶ cm/s

## CC(C)c1ccc(/C=C/c2nc(NCCN(C)C)c3ccccc3n2)cc1
[2]
  Cmax at 8 h: 16.6 ng/mL
[3]
  Tmax at 8 h: 2 h
[4]
  solubility kinetic at 24 h: 108 µM (≈ 38.9 µg/mL)
[5]
  IC50: 0.03 µM
[1]
  Papp at 5 h: 5.85 ×10⁻⁶ cm/s
[6]
  IC50: 2.55 µM
[7]
  IC50: 2.49 µM

## CSc1ccc(/C=C/c2nc(NCCN(C)C)c3cc(Cl)ccc3n2)cc1
[8]
  solubility kinetic at 24 h: 94 µM (≈ 37.5 µg/mL)
[4]
  solubility kinetic at 24 h: 8 µM (≈ 3.19 µg/mL)
[5]
  IC50: 0.38 µM
[1]
  Papp at 5 h: 3.49 ×10⁻⁶ cm/s
[9]
  IC50: 4.95 µM
[7]
  IC50: 3 µM

## CN(C)CCNc1nc(/C=C/c2ccc(S(C)(=O)=O)cc2)nc2ccccc12
[8]
  solubility kinetic at 24 h: 120 µM (≈ 47.6 µg/mL)
[4]
  solubility kinetic at 24 h: 119 µM (≈ 47.2 µg/mL)
[5]
  IC50: 0.05 µM
[1]
  Papp at 5 h: 1.42 ×10⁻⁶ cm/s
[9]
  IC50: 11.3 µM
[6]
  IC50: 8.14 µM
[7]
  IC50: 5.54 µM
